Measured values published in ChEMBL document CHEMBL1201862, “PubChem BioAssay data set” (2004).

tested on: NCI-H322M; test: NCI anticancer screen, dose series, 48 h

SMILES | GI50
Cc1cc2c(cc1Cl)SSc1cc(Cl)c(C)cc1S(=O)(=O)Nc1nc(N)nn1C(O)n1nc(N)nc1NS2(=O)=O | inactive: > 10 µM
CC(=O)OCc1cc(OC(C)=O)cnc1COC(C)=O | inactive: > 100 µM
COc1ccc(C2C3CCc4ccccc4C3=NN2S(=O)(=O)c2ccc(/C=C/C(=O)O)cc2)cc1 (centres undefined) | inactive: 19.9 µM
Cc1ccc(S(=O)(=O)NN=C2C(C)(C)CC2(C)C)cc1 | inactive: > 100 µM
C=CC1(C)CCC2C(=CCC3C2(C)CC(O)C(O)C3(C)COC2OC(CO)C(O)C(O)C2O)C1 (centres undefined) | inactive: > 100 µM
C=CCc1cc(OC)c2c(c1)C(OC(C)=O)CC(c1ccc(OC)c(OC)c1)O2 (centres undefined) | inactive: > 100 µM
COC(=O)C(Cc1ccccc1)NC(=O)CSc1nnc(COc2ccc(Cl)cc2)n1-c1ccccc1 (centres undefined) | inactive: 23.5 µM
O=C(Nc1nc2ccc([N+](=O)[O-])cc2s1)c1cc([N+](=O)[O-])ccc1Cl | inactive: 2.75 µM
COc1cc(N(CCC#N)CCC#N)ccc1C(=N/NC(=O)c1cc(Br)ccc1O)/N=N/c1ccccc1 | inactive: 28.1 µM
Cc1occc1/C(S)=N\c1ccc(Cl)c(C(=O)OCC(F)(F)F)c1 | inactive: 29.4 µM
O=C(Cc1nc2ccccc2s1)C(=O)Nc1cccc(Cl)c1 | inactive: > 100 µM
CC(C)C(C/C=C1/CC(CO)(COC(=O)C2CCCCC2)OC1=O)C(C)C (centres undefined) | inactive: 17.3 µM
CC(C)(C)OC(=O)N/N=C(/N)Cc1ccc(Cl)cc1 | inactive: > 100 µM
N#Cc1ccc(C(=O)/C=C/c2ccc(O)c(O)c2)cc1 | inactive: 16.3 µM
N#Cc1c(SCc2ccccc2)nc(-c2ccccc2)[nH]c1=S | inactive: 28.1 µM
Cc1ccc(S(=O)(=O)N(CC(O)COc2ccccc2)c2ccc(F)cc2F)cc1 (centres undefined) | inactive: 22.6 µM
O=C(c1ccccc1)c1ccc2cccc(OC3OC(CO)C(O)C(O)C3O)c2n1 (centres undefined) | inactive: > 100 µM
COc1ccc(C(=O)O/N=C2\CCCC\C2=C/c2ccccc2)cc1 | inactive: > 100 µM
N/C(S)=N/N=C/c1ccc(N)cn1 | inactive: 4.29 µM
O=C(c1ccccc1)c1ccc2cccc(O)c2n1 | inactive: > 100 µM
COc1ccc(C(Nc2ccccn2)c2cc(C(C)(C)C)cc(C(C)(C)C)c2O)cc1 (centres undefined) | inactive: 34 µM
O=S(=O)(O)C1CCC(O)C2NCCCC21 (centres undefined) | inactive: > 100 µM

SMILES | GI50
COC1C(O)=C2C(=O)OC(C)(O)/C=C/C=C\C=C/C=C/C(c3ccccc3)NC(=O)/C=C/C=C/C=C/C=C/C2(C)C1O (centres undefined) | active: 0.0918 µM
CCOC(=O)c1nc(SC)sc1NC(=O)c1ccc(OC)cc1 | inactive: > 100 µM
CCC1CN2CCC3(c4ccccc4)CC(C(=O)OC)=CC1C23 (centres undefined) | inactive: 16.7 µM
NC(Cc1ccccc1)C(=O)OCN1C(=O)C2C3C=CC(C2C1=O)C1C2C(=O)N(COC(=O)C(N)Cc4ccccc4)C(=O)C2C31 (centres undefined) | inactive: > 100 µM
O=C(CCCn1cnc([N+](=O)[O-])n1)NCCn1ccnc1[N+](=O)[O-] | inactive: > 100 µM
CC(=O)O[C@H]1C(=O)[C@@]2(C)C(C(OC(=O)c3ccccc3)[C@]3(O)CC(OC(=O)C(O)C(NC(=O)c4ccc(C)cc4)c4ccccc4)C(C)=C1C3(C)C)[C@]1(OC(C)=O)CO[C@@H]1C[C@@H]2O (some centres undefined) | active: 0.00973 µM
COc1cc([C@@H]2c3cc4c(cc3[C@@H](NC(=O)c3ccc(C#N)cc3)C3COC(=O)[C@@H]32)OCO4)cc(OC)c1O (some centres undefined) | inactive: 2.72 µM
Oc1ccccc1C1=NOC(c2ccc(C(F)(F)F)cc2)C1 (centres undefined) | inactive: > 50 µM
Cc1ccc2c(c1)C(O)(c1ccccc1)CCS2 (centres undefined) | inactive: 28.7 µM
CCCCCCCCCCCCCCCCOC(=O)c1cc(O)cc(C(=O)OCCCCCCCCCCCCCCCC)c1 | inactive: > 100 µM
Clc1cc(OCc2nn3c(Cc4ccccc4)nnc3s2)c(Cl)cc1OCc1nn2c(Cc3ccccc3)nnc2s1 | inactive: > 100 µM
C/C(=N\n1c(Cc2ccccc2)n[nH]c1=O)c1ccc([N+](=O)[O-])cc1 | inactive: > 100 µM
CCCCc1ccc(Nc2nc(N)c3[nH]cnc3n2)cc1 | inactive: 19.7 µM
O=C1C=C(Nc2cccnc2)c2ccccc2/C1=N/O | inactive: 42.2 µM
COc1cc(C(=O)NC(CCN)(c2ccccc2)c2ccccc2)cc(OC)c1OC | inactive: 88.3 µM
CS(=O)(=O)OCCN(CCOS(C)(=O)=O)c1ccc(/C=N/N=c2/nc[nH]c3nc[nH]c23)cc1 | inactive: 14.4 µM
COc1cc(/C=C2\NC(=S)C3Cc4c(OC)c(C)c(OC)c(OC)c4C2N3C)c(OC)c(C)c1OC (centres undefined) | inactive: 76 µM
NC1C/C(=N\O)c2c(I)sc(I)c21 (centres undefined) | inactive: 16.8 µM
Nc1ccc2ncc(Nc3ccc(F)cc3)nc2c1 | inactive: > 100 µM
CC(C)OP(=O)(OC(C)C)c1nc(-c2ccccc2)n(-c2ccc([N+](=O)[O-])cc2)n1 | inactive: > 100 µM
CCCc1cn2c(/C=N/N=C(N)N)c(-c3c(OC)ccc(OC)c3[N+](=O)[O-])nc2s1 | inactive: 13.9 µM
C=CCC1(CN(C)C)CC/C(=C\c2ccc(Cl)cc2)C1=O (centres undefined) | inactive: > 85.3 µM

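Protocol summary: plate cells (96-well), add compound at 5 concentrations, incubate 48 h, interpolate endpoints linearly. GI50 = concentration required for 50% inhibition of growth.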 Active and inactive are the calls of the source. No stated cut-off is given here; in the data, active = GI50 up to about 1.1 µM and inactive = higher.
